T1: RBFOX1 RRM (Homo sapiens, UniProt Q9NWB1 109-208)
T1 sequence: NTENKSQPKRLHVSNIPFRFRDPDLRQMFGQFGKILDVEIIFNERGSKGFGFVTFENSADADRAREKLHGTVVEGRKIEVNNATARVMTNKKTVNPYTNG

B1: AGUGGAG (DNA:RNA)
RNA: GGGAGACCGGAAUUCAGAUUGUCCAGUGGAGUUAAAUCCCGUCGUAGCCACCA
DNA 1: CAATCTGAATTCCGGTCTCCC
DNA 2: TGGTGGCTACGACGGGATT
B2: UAUGUGG (DNA:RNA)
RNA: B1 RNA with A25U, G26A, G29U, A30G
DNA 1: CAATCTGAATTCCGGTCTCCC
DNA 2: TGGTGGCTACGACGGGATT
B3: AGCGGGA (DNA:RNA)
RNA: B1 RNA with U27C, A30G, G31A
DNA 1: CAATCTGAATTCCGGTCTCCC
DNA 2: TGGTGGCTACGACGGGATT
B4: CUUGGGA (DNA:RNA)
RNA: B1 RNA with A25C, G26U, A30G, G31A
DNA 1: CAATCTGAATTCCGGTCTCCC
DNA 2: TGGTGGCTACGACGGGATT
B5: UUGGAGG (DNA:RNA)
RNA: B1 RNA with A25U, G26U, U27G, G29A, A30G
DNA 1: CAATCTGAATTCCGGTCTCCC
DNA 2: TGGTGGCTACGACGGGATT
B6: GUAAUCU (DNA:RNA)
RNA: GGGAGACCGGAAUUCAGAUUGUCCGUAAUCUUUAAAUCCCGUCGUAGCCACCA
DNA 1: CAATCTGAATTCCGGTCTCCC
DNA 2: TGGTGGCTACGACGGGATT
B7: UGUACGU (DNA:RNA)
RNA: B1 RNA with A25U, G28A, G29C, A30G, G31U
DNA 1: CAATCTGAATTCCGGTCTCCC
DNA 2: TGGTGGCTACGACGGGATT
B8: AUUGGCG (DNA:RNA)
RNA: B1 RNA with G26U, A30C
DNA 1: CAATCTGAATTCCGGTCTCCC
DNA 2: TGGTGGCTACGACGGGATT
B9: GUAUUGA (DNA:RNA)
RNA: B6 RNA with A28U, C30G, U31A
DNA 1: CAATCTGAATTCCGGTCTCCC
DNA 2: TGGTGGCTACGACGGGATT
B10: GUCCCCA (DNA:RNA)
RNA: B6 RNA with A27C, A28C, U29C, U31A
DNA 1: CAATCTGAATTCCGGTCTCCC
DNA 2: TGGTGGCTACGACGGGATT
B11: GCACAAA (DNA:RNA)
RNA: B6 RNA with U26C, A28C, U29A, C30A, U31A
DNA 1: CAATCTGAATTCCGGTCTCCC
DNA 2: TGGTGGCTACGACGGGATT
B12: UACAGGC (DNA:RNA)
RNA: B1 RNA with A25U, G26A, U27C, G28A, A30G, G31C
DNA 1: CAATCTGAATTCCGGTCTCCC
DNA 2: TGGTGGCTACGACGGGATT
B13: ACGCAUA (DNA:RNA)
RNA: B1 RNA with G26C, U27G, G28C, G29A, A30U, G31A
DNA 1: CAATCTGAATTCCGGTCTCCC
DNA 2: TGGTGGCTACGACGGGATT
B14: UAGGAUG (DNA:RNA)
RNA: B1 RNA with A25U, G26A, U27G, G29A, A30U
DNA 1: CAATCTGAATTCCGGTCTCCC
DNA 2: TGGTGGCTACGACGGGATT
B15: GACCCCG (DNA:RNA)
RNA: B6 RNA with U26A, A27C, A28C, U29C, U31G
DNA 1: CAATCTGAATTCCGGTCTCCC
DNA 2: TGGTGGCTACGACGGGATT
B16: ACCUCAA (DNA:RNA)
RNA: B1 RNA with G26C, U27C, G28U, G29C, G31A
DNA 1: CAATCTGAATTCCGGTCTCCC
DNA 2: TGGTGGCTACGACGGGATT
B17: CGGACGG (DNA:RNA)
RNA: B1 RNA with A25C, U27G, G28A, G29C, A30G
DNA 1: CAATCTGAATTCCGGTCTCCC
DNA 2: TGGTGGCTACGACGGGATT
B18: GUAUAAA (DNA:RNA)
RNA: B6 RNA with A28U, U29A, C30A, U31A
DNA 1: CAATCTGAATTCCGGTCTCCC
DNA 2: TGGTGGCTACGACGGGATT
B19: ACUUGCC (DNA:RNA)
RNA: B1 RNA with G26C, G28U, A30C, G31C
DNA 1: CAATCTGAATTCCGGTCTCCC
DNA 2: TGGTGGCTACGACGGGATT
B20: CUGUUUU (DNA:RNA)
RNA: B6 RNA with G25C, A27G, A28U, C30U
DNA 1: CAATCTGAATTCCGGTCTCCC
DNA 2: TGGTGGCTACGACGGGATT
B21: CGUCAUG (DNA:RNA)
RNA: B1 RNA with A25C, G28C, G29A, A30U
DNA 1: CAATCTGAATTCCGGTCTCCC
DNA 2: TGGTGGCTACGACGGGATT
B22: CAACCCU (DNA:RNA)
RNA: B6 RNA with G25C, U26A, A28C, U29C
DNA 1: CAATCTGAATTCCGGTCTCCC
DNA 2: TGGTGGCTACGACGGGATT
B23: ACCUAGC (DNA:RNA)
RNA: B1 RNA with G26C, U27C, G28U, G29A, A30G, G31C
DNA 1: CAATCTGAATTCCGGTCTCCC
DNA 2: TGGTGGCTACGACGGGATT
B24: CUCUACA (DNA:RNA)
RNA: B6 RNA with G25C, A27C, A28U, U29A, U31A
DNA 1: CAATCTGAATTCCGGTCTCCC
DNA 2: TGGTGGCTACGACGGGATT
B25: GCAAGUG (DNA:RNA)
RNA: B6 RNA with U26C, U29G, C30U, U31G
DNA 1: CAATCTGAATTCCGGTCTCCC
DNA 2: TGGTGGCTACGACGGGATT
B26: GUGGUUU (DNA:RNA)
RNA: B6 RNA with A27G, A28G, C30U
DNA 1: CAATCTGAATTCCGGTCTCCC
DNA 2: TGGTGGCTACGACGGGATT
B27: UGCUCAA (DNA:RNA)
RNA: B1 RNA with A25U, U27C, G28U, G29C, G31A
DNA 1: CAATCTGAATTCCGGTCTCCC
DNA 2: TGGTGGCTACGACGGGATT
B28: UGCCAAG (DNA:RNA)
RNA: B1 RNA with A25U, U27C, G28C, G29A
DNA 1: CAATCTGAATTCCGGTCTCCC
DNA 2: TGGTGGCTACGACGGGATT
B29: AUACGCG (DNA:RNA)
RNA: B1 RNA with G26U, U27A, G28C, A30C
DNA 1: CAATCTGAATTCCGGTCTCCC
DNA 2: TGGTGGCTACGACGGGATT
B30: AAUUCGC (DNA:RNA)
RNA: B1 RNA with G26A, G28U, G29C, A30G, G31C
DNA 1: CAATCTGAATTCCGGTCTCCC
DNA 2: TGGTGGCTACGACGGGATT
B31: CCAAAGG (DNA:RNA)
RNA: B6 RNA with G25C, U26C, U29A, C30G, U31G
DNA 1: CAATCTGAATTCCGGTCTCCC
DNA 2: TGGTGGCTACGACGGGATT

Positions count from the first letter of the chain named. Some of the results follow.

Drawing on publication PMC9911399, “Two distinct binding modes provide the RNA-binding protein RbFox with extraordinary sequence specificity”, this text covers binding signal for 31 molecules.

The assay has as its target T1, RBFOX1 RRM. Kind of assay: EMSA; HiTS-Eq, 1 nM pool, 10 min; buffer printed only for the single-RNA assays: 10 mM Tris pH 7.5, 150 mM NaCl, 3.4 mM EDTA, 0.001% NP-40, 30 C. The following applies: tags: His6 N-terminal (pET28a); label: 5' 32P. The essentials: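 These values rest on relative association constants, computed from read-count changes of each RNA species versus the control reaction and normalised to the cognate motif. Reads came from free RNA recovered by 8% native PAGE after purified RbFox RRM (wild type or mutant) at increasing concentrations was equilibrated for 10 min in 50 µL with 1 nM of a 5′-radiolabelled pool with 7 randomized nucleotides and DNA-annealed flanks.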
As for B1, the binding signal was 0.00563 KA relative to UGCAUGU.

As to B2, the binding signal was 0.0112 KA relative to UGCAUGU.

On to B3, for which the binding signal is 0.0205 KA relative to UGCAUGU.

Take B4: the binding signal is 0.00252 KA relative to UGCAUGU.

Turning to B5, the binding signal is 0.0111 KA relative to UGCAUGU.

Regarding B6, the binding signal was 0.00558 KA relative to UGCAUGU.

With B7, the binding signal was 0.00969 KA relative to UGCAUGU.

Turning to B8, the binding signal was 0.0169 KA relative to UGCAUGU.

Consider B9, for which the binding signal was 0.0118 KA relative to UGCAUGU.

In the case of B10, the binding signal was 0.0137 KA relative to UGCAUGU.

Consider B11, for which the binding signal was 0.00369 KA relative to UGCAUGU.

For B12, the binding signal was 0.00911 KA relative to UGCAUGU.

As to B13, the binding signal is 0.00394 KA relative to UGCAUGU.

With B14, the binding signal is 0.0113 KA relative to UGCAUGU.

As to B15, the binding signal is 0.0083 KA relative to UGCAUGU.

B16: the binding signal was 0.00184 KA relative to UGCAUGU.

As for B17, the binding signal was 0.0177 KA relative to UGCAUGU.

For B18, the binding signal was 0.00317 KA relative to UGCAUGU.

As to B19, the binding signal was 0.0101 KA relative to UGCAUGU.

Consider B20, for which the binding signal is 0.017 KA relative to UGCAUGU.

For B21, the binding signal was 0.0131 KA relative to UGCAUGU.

For the molecule B22, the binding signal is 0.00171 KA relative to UGCAUGU.

For the molecule B23, the binding signal was 0.00366 KA relative to UGCAUGU.

For B24, the binding signal was 0.00251 KA relative to UGCAUGU.

For B25, the binding signal was 0.0188 KA relative to UGCAUGU.

For B26, the binding signal is 0.019 KA relative to UGCAUGU.

With B27, the binding signal was 0.0119 KA relative to UGCAUGU.

Consider B28, for which the binding signal is 0.0154 KA relative to UGCAUGU.

Turning to B29, the binding signal was 0.00538 KA relative to UGCAUGU.

With B30, the binding signal was 0.00863 KA relative to UGCAUGU.

In the case of B31, the binding signal is 0.004 KA relative to UGCAUGU.
